Results as given in patent US6392045B1, “9-azobicyclo[3.3.1] non-2-ene derivatives as cholinergic ligands at nicotinic ACH receptors” (NeuroSearch A/S, priority 1997, dated 2002).
Read-outs that look alike come from different tables or passages of the source. Some values that stand alone complete this part of the results.

With `CN1C2C=C(c3cc4ccccc4s3)CC1CCC2` (racemic) [Compound 7a, (±)-3-(2-Benzothienyl)-9-methyl-9-azabicyclo[3.3.1]non-2-ene] the melting point (free base prepared by method A) was 91.3 to 93.5 °C and the melting point (free base prepared by method C) was 83.2 to 85.4 °C.
